Assay results taken from paper PMC6919601, “Identification of Plasmodium dipeptidyl aminopeptidase allosteric inhibitors by high throughput screening” (PLoS ONE, 2019).
Screen size: about 110,000 compounds; about 230 (0.21%) showed an effect of 50% or more. The list shows a part of the results.

Biological target: DPAP1 (Plasmodium falciparum, UniProt Q8IIJ9)
Experiment: primary screen, percent inhibition; read by cleavage of a fluorogenic dipeptide substrate; higher = more effect of the substance
Set-up: species or system P. falciparum D10 trophozoite lysates; single well
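Further: 30 min substrate incubation versus DMSO and 10 µM JCP410 controls.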

Chain of DPAP1 (Q8IIJ9 whole entry, looked up): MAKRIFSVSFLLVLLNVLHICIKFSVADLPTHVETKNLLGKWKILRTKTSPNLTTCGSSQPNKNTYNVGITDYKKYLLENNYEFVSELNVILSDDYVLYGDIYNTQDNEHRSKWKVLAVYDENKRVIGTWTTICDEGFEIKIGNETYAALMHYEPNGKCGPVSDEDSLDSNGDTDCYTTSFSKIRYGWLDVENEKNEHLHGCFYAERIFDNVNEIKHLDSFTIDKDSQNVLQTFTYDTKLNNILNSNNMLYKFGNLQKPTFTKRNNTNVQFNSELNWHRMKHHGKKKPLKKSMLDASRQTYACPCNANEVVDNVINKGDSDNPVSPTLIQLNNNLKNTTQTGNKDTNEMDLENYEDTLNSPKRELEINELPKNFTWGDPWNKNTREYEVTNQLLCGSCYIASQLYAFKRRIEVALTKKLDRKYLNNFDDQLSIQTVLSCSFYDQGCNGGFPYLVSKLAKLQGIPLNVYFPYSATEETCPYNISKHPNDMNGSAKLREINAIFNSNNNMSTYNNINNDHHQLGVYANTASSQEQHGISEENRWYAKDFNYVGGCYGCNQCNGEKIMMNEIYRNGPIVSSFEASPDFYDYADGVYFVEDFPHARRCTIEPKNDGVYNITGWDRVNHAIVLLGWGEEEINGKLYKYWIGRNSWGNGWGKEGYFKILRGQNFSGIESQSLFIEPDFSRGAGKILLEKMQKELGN

Row | SMILES | % Inhibition @ 10 uM [%]
1 | NC(=O)CSc1nc2c(oc3ccccc32)c(=O)n1Cc1ccc(F)cc1 | -3.33
2 | CC(C)=CCCC(C)CN1CCN(c2ccc(Cl)cc2)CC1 (stereo not drawn) | -7.91
3 | O=C(Nc1ccc(Cl)c(Cl)c1)OCCNS(=O)(=O)c1cccc([N+](=O)[O-])c1 | 11.6
4 | COc1ccc(Cl)cc1NC(=O)c1ccc(N(C)S(=O)(=O)c2ccc(C)cc2)cc1 | 0.145
5 | Oc1nc(NC2CCCCC2)nnc1Cc1ccc(Cl)cc1 | -3.78
6 | C=CCO/C(O)=C1/C(C)=Nc2ncnn2C1c1cccs1 (stereo not drawn) | -1.62
7 | CC(C)(C)Nc1nc(-c2ccccc2O)nc2ccccc12 | -2.19
8 | CCCC1CCC(c2ccc(C#N)c(O)n2)CC1 (stereo not drawn) | -3.44
9 | COc1cc(/C=C2\C=C(c3ccc(Cl)cc3)OC2=O)cc(Br)c1OC | 3.72
10 | CC1(C)Oc2ccc3ccc(=O)oc3c2C/C1=N\O | 0.467
11 | CN1CCN(C(=O)c2ccccc2N(Cc2ccccc2)S(C)(=O)=O)CC1 | -3.68
12 | CCCOc1ccc(C2C(=O)N(C3CCCCC3)CC(=O)N2Cc2ccccc2)cc1OC (stereo not drawn) | -7.73
13 | COc1ccc(/C=C2\CS/C(=C\c3ccc(OC)c(OC)c3)C2=O)cc1OC | 5.74
14 | Cc1nc(SCc2cccnc2)c(C#N)cc1C(=O)O | 4.47
15 | CC(NC(=O)Cc1nn[nH]n1)c1ccccc1 (stereo not drawn) | -5.93
16 | Nc1c2c(nc3ccccc13)N(Cc1ccccc1)CC2 | -4.21
17 | c1ccc(N(c2ccccc2)c2nc(N3CCOCC3)nc(N3CCOCC3)n2)cc1 | 0.968
18 | O=C(NS(=O)(=O)c1ccc(Cl)s1)c1ccccc1 | -3.33
19 | COCCNC(=O)CCNS(=O)(=O)c1ccc(C)cc1 | -0.256
20 | CCO/C(O)=C1\C(C)=NC(C)=C(C(=O)OC)C1c1ccc([N+](=O)[O-])cc1 (stereo not drawn) | 1.43
21 | Cc1cc(C)cc(CC(C(=O)NCc2ccccc2)C(C)C(=O)O)c1 (stereo not drawn) | 12.9
22 | COc1cc(CNC(C)c2ccccc2)cc(Cl)c1OCC(N)=O (stereo not drawn) | -2.74
23 | Cc1ccc(-c2onc(C)c2C)cc1S(=O)(=O)N1CCC(N2CCCCC2)CC1 | -2.81
24 | COc1ccc(S(=O)(=O)N2CCN(c3ccc(C)cc3C)CC2)c2ccccc12 | -2.66
25 | O=c1oc2ccccc2c(NCc2ccccc2)c1CN1CCCCC1 | 1.42
26 | COc1ccc(C2C(C(=O)Nc3ccccc3C)=C(C)Nc3nc(CCCO)nn32)cc1OC (stereo not drawn) | -3.39

Row | SMILES | % Inhibition @ 10 uM [%]
27 | N#CC1=C(N)Oc2[nH]nc(-c3cccc4ccccc34)c2C1c1cccc(O)c1 (stereo not drawn) | 0.562
28 | CC(C)CCn1c(=O)c2ccccc2n2c(CCC(=O)NCCCN3CCOCC3)nnc12 | 3.54
29 | CCOC(=O)c1nnc(S)nc1O | -5.37
30 | C=CCNC(=O)c1c(NC(=O)COc2ccccc2)sc2c1CCCC2 | -1.52
31 | C=CCNC(=O)c1c(NC(=O)c2ccco2)sc2c1CCC(C(C)(C)C)C2 (stereo not drawn) | -2.8
32 | COc1ccc(-c2nnc3n2N=C(c2ccc(Br)s2)CS3)cc1 | 2.89
33 | CCOC(=O)c1c(NC(=O)c2ccccc2C(=O)O)sc(C)c1C | 6.89
34 | Cc1nc2c(Cl)cccc2c2c1CC(C(C)(Cl)Br)O2 (stereo not drawn) | 2.05
35 | CCCN(CCC)Cc1c(C(=O)O)nnn1-c1nonc1N | 3.25
36 | CN(C)S(=O)(=O)c1ccc(S(=O)(=O)N2CCC3(CC2)OCCO3)cc1 | 4.18
37 | CCCCn1c(-c2ccccc2)nc2c(sc3nc(C)cc(COC)c32)c1=O | 1.76
38 | COc1cc(C2C3=C(O)CCCC3=NC(C)=C2C(=O)N2CCCCC2)ccc1OCc1ccccc1 (stereo not drawn) | -5.05
39 | CCc1ccc(/C=C(\C#N)c2nc(-c3ccccc3)cs2)cc1 | -3.44
40 | CC(NC(=O)Cn1cnc2c1c(=O)n(C)c(=O)n2C)c1ccccc1 (stereo not drawn) | 1.27
41 | c1ccc(-c2c(-c3ccccc3)n(Cc3ccco3)c3ncnc(NCCCn4ccnc4)c23)cc1 | 1.96
42 | CCOCCCNC(=O)c1ccc(N(C)S(C)(=O)=O)cc1 | 6.7
43 | COc1ccc(-c2nc3n(n2)C(c2cccnc2)C2=C(O)CCCC2=N3)cc1 (stereo not drawn) | 0.275
44 | Cc1ccc(OCCSc2nc3ccccc3n2CC(=O)O)cc1 | 5.6
45 | Cc1ccccc1C(=O)Nc1sc2c(c1C(=O)N(C)C)CCCCC2 | 4.83
46 | O=C(NCc1cccnc1)c1ccc(CS(=O)c2cccc(Cl)c2)o1 (stereo not drawn) | 1.5
47 | CCN(CC)CCOc1cc(C)ccc1C | -4.01
48 | CCCS(=O)(=O)N1CCCC(C(=O)NC2CCC(C)CC2)C1 (stereo not drawn) | -0.0542
49 | COc1cc2c(cc1OC)C(C(=O)N1CCCCCC1)C1c3ccccc3CCN1C2=O (stereo not drawn) | 3.53
50 | CCO/C(O)=C/C1=NCCNC1=O | -1.18
51 | Cc1sc2nc(SC/C=C/c3ccccc3)nc(N)c2c1C | -9.24
52 | O=C(NC1CCCCC1)C1CCN(S(=O)(=O)c2ccc3[nH]c4c(c3c2)CCCCC4)CC1 | -1.34

Row | SMILES | % Inhibition @ 10 uM [%]
53 | COC(=O)C1=C(O)/C(=C\c2cc(C)n(-c3ccc(OC)c(Cl)c3)c2C)N=C1C | 6.58
54 | COc1ccc(/C=c2/sc3nc4cc(Br)cnc4n3c2=O)c(OC)c1 | 10.9
55 | O=C(NCc1ccc(Cl)cc1)c1cc(-c2ccccc2O)on1 | 3.55
56 | O=C(Nc1cccc(Cl)c1)c1ccc([N+](=O)[O-])o1 | -4.11
57 | C=C1N(C2CCCCC2)C(=O)OC12CCCCC2 | 2.45
58 | COc1cccc2cc(CC(=O)O)oc12 | 3.04
59 | CCCCn1c2ccccc2n2cc(-c3ccc4c(c3)OCO4)nc12 | 3.74
60 | CCOc1cc(C#N)c(NC(=O)c2cccc(OC)c2)cc1OCC | -3.09
61 | COc1cccc(CNC(=O)C(C)Nc2nn3c(=O)cc(C)nc3s2)c1 (stereo not drawn) | 0.0882
62 | O=C(NCCc1cccs1)c1sc2ccccc2c1Cl | 3.68
63 | COc1ccc(C(=O)Nc2ccc(Cl)cc2C(=O)N2CCCCC2CCO)cc1 (stereo not drawn) | 0.205
64 | COc1ccc(C(=O)CSc2n[nH]c(C)n2)cc1C | -2.87
65 | CS(=O)(=O)N1CCn2c(nc3ccccc32)C1 | 1.9
66 | CCc1ccc(OCCNC(=O)OCc2ccccc2)cc1 | -3.43
67 | COc1ccc(C2C(C#N)=C(N)OC3=C2C(=O)CCC3)cc1COc1ccc(Cl)cc1 (stereo not drawn) | 4.75
68 | CCOC(=O)N1CCN(S(=O)(=O)N2CCCC(C(=O)NCCc3ccc(C)cc3)C2)CC1 (stereo not drawn) | -3.12
69 | COc1ccc(S(=O)(=O)NCCc2c(C)[nH]c3c(Cl)cccc23)cc1C | -2.66
70 | CCN1CCC(N2CCN(C)CC2)CC1 | 3.44
71 | CCCNC(=O)CCCOc1ccc(Cl)cc1Cl | 0.247
72 | COc1ccc(CCNCc2ccccc2C(F)(F)F)cc1OC | 4.55
73 | O=C(Cn1ncc2c1-c1ccccc1OC2)N1CCN(c2ccccn2)CC1 | -1.66
74 | O=P1(c2ccccc2O)COc2ccccc2OC1 | -2.91
75 | O=S(=O)(NC1CCCCC1N1CCC(O)CC1)c1ccccc1 (stereo not drawn) | 1
76 | O=C(Nc1ccc(Br)cc1)c1nc2nc(-c3ccccc3)cc(C(F)(F)F)n2n1 | 1.87
77 | O=C(Cn1ncc2c3ccccc3nc-2c1O)Nc1nccs1 | -3.99
78 | CC(C)c1nnc(NC(=O)CC(NC(=O)c2ccccc2)c2ccccc2)s1 (stereo not drawn) | -2.87

Row | SMILES | % Inhibition @ 10 uM [%]
79 | O=C(c1ccccc1Cl)N1CCn2c1nc1ccccc12 | 3.63
80 | CC(C(=O)c1ccccc1)N1C(=O)c2ccccc2C1=O (stereo not drawn) | 6.63
81 | Cc1sc2ncnc(NC3CCCCC3)c2c1C | 1.76
82 | CC(C)C(=O)Nc1ccc(Oc2ccc(NC(=O)C(C)C)cc2)cc1 | 0.795
83 | CC(C)(C)c1ccc(S(=O)(=O)N2CCC(n3c(O)nc4ccccc43)CC2)cc1 | 2.62
84 | Cc1nn(-c2ccccc2)c(O)c1/C=N/c1nc2ccc(Cl)cc2s1 | -0.413
85 | COc1ccc(-n2nc3c(c2NC(=O)c2cccc(OC)c2OC)CS(=O)(=O)C3)cc1 | 9.87
86 | COc1cc(-c2cc(/N=C(/NCc3ccco3)SC)[nH]n2)cc(OC)c1OC | -2.28
87 | O=C1CC(c2ccccc2)NC(SCC(=O)NCc2ccccc2)=N1 (stereo not drawn) | -8.7
88 | CCOC(=O)C1=C(CC)OC(N)=C(C#N)C1c1ccc(NC(C)=O)cc1 (stereo not drawn) | 3.54
89 | O=C(/C=C(\O)C(F)(F)C(=O)/C=C(\O)c1ccccc1)c1ccccc1 | -2.47
90 | Cc1nc(SC2CC(=O)N(c3ccccc3)C2=O)nc2c1CCCC2 (stereo not drawn) | 8.49
91 | Fc1ccc(N2CCN(C3CCN(Cc4ccccc4)CC3)CC2)cc1 | 3.28
92 | N#CC1=C(N)SC(N)=C(C#N)C1c1ccccc1 | 70.9
93 | Cc1ccc(O)c(C(=O)/C=C/N2CCCCC2)c1 | 12.8
94 | Cc1cc(C)cc(Oc2ncnc3sc4c(c23)CCCC4)c1 | -1.05
95 | COc1cccc(CNC(=O)Cn2ncc3c4ccccc4n(Cc4ccccc4F)c3c2=O)c1 | -1.58
96 | CC(=O)Nc1sc2c(c1C(=O)Nc1cccc3ccccc13)CCCC2 | 2.43
97 | COCCNC(=O)Cn1ncn2c(cc3ccccc32)c1=O | -1.92
98 | COc1ccccc1OCC(=O)Nc1ccccc1C(=O)Nc1ccccc1 | 2.42
99 | Cc1ccc(S(=O)(=O)Nc2cccc3cccnc23)cc1 | -5.5
100 | CCCOc1ccc2nc(C)c(CCC)c(Cl)c2c1 | -1.99
101 | O=[N+]([O-])c1ccc(CN2CCC(O)CC2)o1 | -0.969
102 | CC(C)CC(C(=O)NCC#N)c1cccc(-c2ccc(C3(O)CCN(C=O)CC3)cc2)c1 (stereo not drawn) | 3.19
